Measured values taken from US20080118512A1 (DELENEX THERAPEUTICS, published 2008).

T1: human ALK epitope peptide (amino acids 391-406 of the ALK protein) (human)
T1 construct: In the yeast two-hybrid screen it was a C-terminal fusion to LexA; also called Alk LBD peptide; Alk LBD
T1 peptide: GRIGRPDNPFRVALEY


Tests used:
[1] = molecular target: T1, human ALK epitope peptide (amino acids …); experiment: ELISA with Alk LBD peptide
[2] = molecular target: T1, human ALK epitope peptide (amino acids …); experiment: ELISA on GST-ALK peptide

| Kd [1] | EC50 (read off the curve) [2] | Kd [2] | binding result [2] | Binder |
| --- | --- | --- | --- | --- |
| ~7 nM | ~7 nM | 7.2 nM |  | scFv ESBA521 (scFv, also called ESBA512) scFv: QSVLTQPPSVSAAPGQKVTISCSGSTSNIGDNYVSWYQQLPGTAPQLLIYDNTKRPSGIPDRFSGSKSGTSATLGITGLQTGDEADYYCATWDNDKWGVVFGGGTKLEVLGGGGGSGGGGSGGGGSSGGGS[about 100 residues not listed]DAWLDVLSDGFDYWGQGTLVTVSS |
|  | ~30 nM | 31 nM |  | primary binder scFv isolated from the FW4.4 VH CDR3 library (first screening round) (scFv, also called probably clone H5 SH 5.3) scFv: QSVLTQPPSVSAAPGQKVTISCSGSTSNIGDNYVSWYQQLPGTAPQLLIYDNTKRPSGIPDRFSGSKSGTSATLGITGLQTGDEADYYCGTWDSSLSGVVFGGGTKLTVLGGGGGSGGGGSGGGGSSGGGS[about 100 residues not listed]DAWLDVLSDGFDYWGQGTLVTVSS |
|  |  |  | no binding (tested: 10000 nM) | framework FW4.4 scFv (scFv, also called framework 4.4 scFv; WT FW4.4) scFv: QSVLTQPPSVSAAPGQKVTISCSGSTSNIGDNYVSWYQQLPGTAPQLLIYDNTKRPSGIPDRFSGSKSGTSATLGITGLQTGDEADYYCGTWDSSLSGVVFGGGTKLTVLGGGGGSGGGGSGGGGSSGGGS[about 100 residues not listed]DAGIAVAGTGFDYWGQGTLVTVSS |
